This note sets out measurements from PubChem BioAssay AID463173 (ICCB-Longwood Screening Facility, Harvard Medical School, 2010).

Structures are written as SMILES. Out of some 52,000 compounds screened, about 4,300 (8.3%) were called active. No stated cut-off is given here; in the data, active means survival mostly below about 52% (no sharp cut-off); inactive means mostly above about 56%. This is one part of the list.

In this test the test system is DeltatarO mutant. Nature of the test: growth inhibition of S. aureus wild type versus tarO mutant, primary screen, teichoic acid synthesis inhibitors, RN4220, OD600 (AID 463173). The conditions noted are these: OD600, 18 h, active compounds read low, screened at 18.75 µg/mL (by protocol).
Turning to `O=C(CSc1nnnn1C1CCCC1)NCc1cccs1`, the survival is inactive: 103%.
To `Cc1ccc2c(c1)nnn2C1CCN(C(=O)N(c2ccccc2)c2ccccc2)CC1` belongs inactive: 90%; to `Cc1cc2c(cc1NS(=O)(=O)c1cccc(C#N)c1)n(C)c(=O)c(=O)n2C`, inactive: 72%; to `CCc1cccc(C)c1NC(=O)Cn1nnc(-c2nc(-c3ccccc3F)no2)c1N`, inactive: 97%.
To `COc1ccc(NS(=O)(=O)c2cc3c(cc2C)N(C(C)=O)CCO3)cc1` belongs inactive: 103%; to `CCCOc1ccc(C2C(=O)N(C3CCC(C)CC3)CC(=O)N2Cc2cccc(OC)c2)cc1OC` (stereo not drawn), inactive: 72%; to `Cc1ccccc1/C=C(\C#N)c1nc(-c2ccc(Cl)cc2)cs1`, active: 14%.
`COc1cc2c(C)nc(C)c(C#N)c2cc1OC`: the survival is inactive: 88%.
Next, `Cc1csc2nc(-c3ccc(NS(=O)(=O)c4cc(F)ccc4F)cc3)cn12`: inactive: 87%; `CN(C(=O)c1ccc2c(Cl)c3c(nc2c1)CCC3)c1ccccc1F`: inactive: 118%; `Cc1ccc(CNC(=O)c2nnc(Cc3ccc(Cl)cc3)o2)cc1`: inactive: 99%.
Consider `CCN(CC)C(=O)Cn1c(=O)n(-c2ccccc2)c(=O)c2c3c(sc21)CCC3`, for which the survival is inactive: 97%.
Next, `COc1ccccc1C(=O)Nc1ccc(C(=O)OCc2cc(=O)n3nc(C)sc3n2)cc1`: inactive: 98%; `Cc1ccc(S(=O)(=O)c2cn(CC(=O)Nc3cccc(C)c3)c3cc4c(cc3c2=O)OCO4)cc1`: inactive: 61%.
As for `CCCn1c(N)nc2c1c(=O)[nH]c(=O)n2C`, the survival is inactive: 71%.
Next, `CC1CCC(C(=O)NC(C(=O)OCC(=O)c2ccc(Br)cc2)C(C)C)CC1` (stereo not drawn): inactive: 73%; `Cc1ccc(/C=C/c2onc(C)c2S(=O)(=O)N2CCC(C(=O)Nc3ccc(Br)c(C)c3)CC2)cc1`: inactive: 74%; `CNS(=O)(=O)c1cn(CC(=O)Nc2ccc(OC)cc2OC)cc1S(=O)(=O)NC`: inactive: 98%.
To `CCOc1ccc(Nc2oc(/C=C/c3cccc(OC)c3)nc2C#N)cc1` belongs inactive: 79%; to `O=C(CSc1nc2sc3c(c2c(=O)[nH]1)CCCC3)Nc1nc2c(s1)CCCC2`, inactive: 80%.
To `CCCCCn1c(CCNC(=O)c2cccc(C)c2)nc2ccccc21` belongs active: 32%; to `Cc1ccc2c(c1)C1OCCC1C(c1cccs1)N2` (stereo not drawn), inactive: 94%.
Take `Cc1ccc(NC(=O)Cn2c(-c3cncs3)nc3ccccc32)c(Br)c1`: the survival is inactive: 63%.
Next, `Cc1ccc(CNC(=O)CN2C(=O)C3(SCC(=O)N3c3ccc(F)cc3)c3ccccc32)cc1` (stereo not drawn): inactive: 77%; `CC(=O)N1CCc2c(sc3c2c(=O)n(Cc2ccccc2)c(=O)n3Cc2cc(C)ccc2C)C1`: inactive: 74%; `CC1CN(C(=O)N2CCC(C(=O)NCCCc3ccccc3)CC2)c2ccccc2O1` (stereo not drawn): inactive: 75%.
To `Cc1ccc(OCCSc2nc3ccc(NC(=O)c4ccc(F)cc4)cc3s2)cc1` belongs inactive: 109%.
For the molecule `CCOC(=O)C(CC)Sc1c(CC)cnc2c1c(=O)n(C)c(=O)n2C` (stereo not drawn), the survival was inactive: 84%.
Next, `Cc1cccc(C(C)C)c1NC(=O)C(NS(=O)(=O)c1cccc2nsnc12)c1ccccc1` (stereo not drawn): inactive: 77%.
Next, `Fc1ccc(COC(CN2CCCCC2)CN2CCCCC2)cc1`: inactive: 76%; `COc1ccc(CNC(=O)CCc2nc(-c3ccc(OC)cc3)no2)cc1`: inactive: 96%; `Nc1nc2c(s1)CCCC2`: inactive: 102%.
In the case of `CCc1ccc(CNC(=O)C2CCCN(S(=O)(=O)c3ccc4c(ccn4C)c3)C2)cc1` (stereo not drawn), the survival is inactive: 101%.
`CCSc1nc2c([nH]c3ccccc32)c(=O)n1-c1ccc(F)cc1`: the survival was inactive: 87%.
For the molecule `Cc1cc(C)c2c(n1)sc1c(=O)n(-c3ccccc3C(F)(F)F)nnc12`, the survival is inactive: 133%.
To `CC1(C)Cc2ccccc2C(NN=C2CCCCC2)=N1` belongs inactive: 98%; to `CCC(=O)N1CCc2cc(CNS(=O)(=O)c3cccs3)ccc21`, inactive: 73%; to `CCCCOc1ccc(CNC(=O)c2ccc3c(c2)N(C)C(=O)C2CCCCN32)cc1` (stereo not drawn), inactive: 74%.
For the molecule `Cc1ccccc1CSc1ccc(-c2cccs2)nn1`, the survival was inactive: 123%.
Next, `Cc1cc(C)n(-c2nc(C)c(C)c(=O)n2CC(=O)Nc2ccc(OC(F)(F)F)cc2)n1`: inactive: 90%; `Cc1cccc(NC(=O)c2cc(S(=O)(=O)N3CCCCCC3)cn2C)c1C`: inactive: 67%.
To `Cc1ccc(NC(=O)Cn2cc(C(=O)C3CC3)c3ccccc32)cc1C` belongs inactive: 86%; to `Cc1ccc(S(=O)(=O)NC(C)(C)CN2CCCCC2)cc1`, inactive: 96%.
To `Cc1ccc(Cc2cn3cc(-c4ccc(F)cc4)nc3s2)cc1` belongs inactive: 141%; to `COc1ccc(-c2c(C)c3ccc(O)c(CN4CCCC4)c3oc2=O)cc1OC`, inactive: 87%.
For the molecule `COC(=O)CSc1nc2ccccc2n1CC(=O)N1C(C)CCCC1C` (stereo not drawn), the survival is inactive: 87%.
Next, `COc1cccc(-c2cn3ncsc3n2)c1`: inactive: 74%; `O=C(/C=C/c1ccccc1Cl)N1CCC(c2nc3ccccc3o2)CC1`: inactive: 63%; `CCOc1ccc(NC(=O)c2sc3nc4n(c(=O)c3c2C)CCC4)cc1`: inactive: 81%.
Next, `Cc1ccccc1N1C(=O)c2ccccc2NC1c1ccncc1` (stereo not drawn): inactive: 93%; `COC(=O)N1CCCc2cc(S(=O)(=O)NCc3ccccc3)ccc21`: inactive: 70%.
To `COc1cc(NC(=O)CN2CCN(c3ccc(F)cc3)CC2)cc(OC)c1` belongs inactive: 97%; to `Cc1nn(CC(=O)NC2CCC(C)CC2)c(=O)c2c1sc1ccccc12` (stereo not drawn), inactive: 80%.
Turning to `Cc1ccc2oc(-c3ccc(NC(=O)CCC(=O)O)cc3)nc2c1`, the survival was inactive: 86%.
To `Cc1ccc(NC(=O)CCc2c(C)nc3c(-c4ccc(F)cc4)c(C)nn3c2C)cc1F` belongs inactive: 74%.
In the case of `Cc1cc(C)c(Nc2ncnc3c2cnn3C)c(C)c1`, the survival was inactive: 80%.
Next, `CCn1cc2nc(SCC(=O)Nc3cc(OC)cc(OC)c3)n(Cc3ccc(Cl)cc3)c(=O)c2n1`: inactive: 86%; `Cc1cc(C)cc(NC(=O)CSc2nc3c(c(=O)[nH]2)CN(Cc2ccc(F)cc2)CC3)c1`: inactive: 74%; `CCn1cc(C(=O)Nc2cccc(Cl)c2)c2cc(OC)c(OC)cc2c1=O`: active: 46%.
Next, `O=C(COc1ccccc1O)NCCN1CCOCC1`: inactive: 64%.
To `CCCCN(CC)CCNC(=O)C1CCN(S(=O)(=O)c2cccc3nsnc23)CC1` belongs inactive: 103%; to `Cc1ccccc1COC(=O)c1nn(-c2ccccc2)nc1N`, active: -1%.
Consider `COc1ccccc1N1CCN(C(=O)Cn2c(=O)n3nc(-c4cccc(F)c4)nc3c3ccccc32)CC1`, for which the survival is inactive: 71%.
To `CC(=O)c1ccc(N2CCN(S(=O)(=O)c3ccc(-c4coc(C)n4)cc3)CC2)cc1` belongs inactive: 94%; to `CC(C)(C)NC(=O)Cc1ccccc1`, inactive: 73%; to `CCOC(=O)c1cc2occc2n1Cc1c(F)cccc1Cl`, inactive: 110%.
With `Cc1cccc(C)c1NC(=O)c1ccc2c(c1)nnn2C1CCCC1`, the survival was active: -5%.
To `CCOc1cc(-c2ccc(OC(=O)c3ccccc3Cl)c(OC)c2)cc(=O)c2c(C)oc(C)c12` belongs inactive: 69%; to `COc1ccc(-c2nn3c(=O)cc(CN4CCN(C(=O)/C=C/c5ccccc5)CC4)nc3s2)cc1`, inactive: 90%.
Next, `COc1ccc(C2CC(=O)Nc3c2c(=O)[nH]c2nc4ccccc4n32)cc1` (stereo not drawn): inactive: 66%; `Cc1ccc(-c2cc(C(=O)Oc3ccc(C#N)cc3)no2)cc1`: inactive: 97%; `CCn1c(SCC(=O)Nc2ccccc2C(=O)OC)nc2ccsc2c1=O`: inactive: 94%.
Next, `CCC(=O)NNc1ncnc2c1cnn2-c1ccc(C)c(Cl)c1`: inactive: 72%; `CCN(Cc1ccccc1)C(=O)Cn1c(=O)n(-c2ccccc2)c(=O)c2c1c1cc(C)ccc1n2C`: inactive: 94%; `Cc1nc2ccccc2c(=O)n1-c1ccc(NC(=O)c2ccccc2[N+](=O)[O-])cc1`: inactive: 69%.
As to `O=C(CSc1nc(=O)[nH]c2c1CCC2)NCc1ccccc1Cl`, the survival is inactive: 88%.
Next, `O=C(O)CCC(=O)NCc1ccccn1`: inactive: 82%; `CCc1ccc(CSc2nc(-c3ccccc3F)nc3c2Cc2c(CO)cnc(C)c2O3)cc1`: inactive: 61%.
For `CCc1nn(CC(=O)N2CCN(c3ccc(OC)cc3)CC2)c(=O)c2cc3sccc3n12`, the survival is inactive: 74%.
Turning to `CC(CCc1ccccc1)NC(=O)Cn1ncc2c3ccccc3n(Cc3ccccc3F)c2c1=O` (stereo not drawn), the survival was inactive: 92%.
Next, `COc1ccc(-c2cnc(C)o2)cc1S(=O)(=O)Nc1ccc(NC(C)=O)cc1`: inactive: 74%; `O=C(CSc1nccn1-c1cccc(Cl)c1)Nc1ccc2c(c1)OCO2`: inactive: 72%; `CCN(C(=O)C1CCN(S(=O)(=O)c2cc(Br)cc3c2N(C(C)=O)CC3)CC1)c1cccc(C)c1`: inactive: 72%.
Next, `O=C(CCn1c(=O)c2cccn2c2cccnc21)N1CCN(c2ccccc2)CC1`: inactive: 102%.
As to `Cn1c(=O)oc2cc(S(=O)(=O)CCC(=O)N3CCN(c4ccccc4F)CC3)ccc21`, the survival was inactive: 91%.
On to `Cc1cccc(CN2C(=O)c3ccccc3Sc3ccc(C(=O)NC4CCCCC4)cc32)c1`, for which the survival was inactive: 118%.
To `O=C(Nc1ccc2nc(SCC(=O)N3CCOCC3)sc2c1)c1cccc(Br)c1` belongs active: 29%.
Next, `Cc1cccc(CNC(=O)C2CCC(CNS(=O)(=O)c3ccc4c(c3)CCCC(=O)N4)CC2)c1` (stereo not drawn): inactive: 91%; `COc1ccc(OC(=O)c2nc(SCc3ccccc3F)ncc2Cl)cc1`: inactive: 77%.
To `Cc1ccc(NC(=O)Cn2c(=O)n(Cc3ccco3)c(=O)c3oc4ccccc4c32)cc1C` belongs inactive: 76%; to `O=C(NC1CCCCCC1)C1COc2ccccc2O1` (stereo not drawn), inactive: 90%.
On to `CCCC(c1nnnn1CCC(C)C)N1CCC(C(N)=O)CC1` (stereo not drawn), for which the survival was inactive: 84%.
For `COCCCNC(=O)c1ccc(-c2nc(CS(=O)(=O)c3ccc(C)cc3)c(C)o2)cc1`, the survival is inactive: 95%.
